According to PMC4359380:
No constants are given. Whether binding was seen depends on the method and setting. Binding seen in cells or lysates may run through a third protein. Some results given as binding are weak or reduced against the parent protein; the word gives no strength. For part of these data: Tags and fused reporters may be left off the sequences shown. Each block holds one molecule with its values, some of them ahead of it.

By UniProt entry, the sequences of proteins in these tests, tags left out. Where a name states a change or a piece, a line headed by the entry shows the natural chain unless it says otherwise.
UniProt Q15544: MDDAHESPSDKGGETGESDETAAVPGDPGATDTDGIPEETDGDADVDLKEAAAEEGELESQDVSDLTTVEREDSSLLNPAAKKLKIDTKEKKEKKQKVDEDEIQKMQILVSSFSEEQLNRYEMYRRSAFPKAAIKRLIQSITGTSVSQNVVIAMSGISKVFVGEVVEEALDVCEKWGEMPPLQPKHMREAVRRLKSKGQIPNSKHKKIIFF

How the values were obtained:
[1] = target: T1, HNF4A (expressed in HEK cells) (UniProt P41235); assay: co-IP; HEK cells transfected with combinations of expression vectors; extracts precipitated with anti-HNF4A antibodies; Western blot
T1 sequence: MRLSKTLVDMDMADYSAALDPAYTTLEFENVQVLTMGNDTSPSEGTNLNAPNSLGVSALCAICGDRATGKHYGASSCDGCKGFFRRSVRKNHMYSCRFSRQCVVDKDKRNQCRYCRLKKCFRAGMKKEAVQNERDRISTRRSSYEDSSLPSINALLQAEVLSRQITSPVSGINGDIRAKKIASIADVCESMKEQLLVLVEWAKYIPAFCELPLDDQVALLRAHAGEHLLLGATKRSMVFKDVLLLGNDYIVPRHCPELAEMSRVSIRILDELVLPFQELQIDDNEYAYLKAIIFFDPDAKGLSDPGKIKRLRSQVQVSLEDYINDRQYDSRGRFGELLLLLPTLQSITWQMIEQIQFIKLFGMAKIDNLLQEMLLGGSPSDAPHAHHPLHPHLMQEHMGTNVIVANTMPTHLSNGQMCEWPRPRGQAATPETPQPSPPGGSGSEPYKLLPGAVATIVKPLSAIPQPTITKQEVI

[2] = target: 6XHIS-tagged TAF12 (29–161) (human) (UniProt Q16514); assay: pull-down; co-expression in E. coli BL21; supernatant of sonicated cells (10 mM Tris-HCl pH 8.0 and 50, 200 or 400 mM NaCl) on TALON cobalt resin, 2 h, 4°C; retained proteins by SDS-PAGE and Coomassie staining; His tag on TAF4–TAF12
[3] = target: T2, 6HIS-tagged TAF4(805–1083)–TAF12(29–161) heterodimer (human) (UniProt O00268+Q16514); assay: as above
T2 sequence 1: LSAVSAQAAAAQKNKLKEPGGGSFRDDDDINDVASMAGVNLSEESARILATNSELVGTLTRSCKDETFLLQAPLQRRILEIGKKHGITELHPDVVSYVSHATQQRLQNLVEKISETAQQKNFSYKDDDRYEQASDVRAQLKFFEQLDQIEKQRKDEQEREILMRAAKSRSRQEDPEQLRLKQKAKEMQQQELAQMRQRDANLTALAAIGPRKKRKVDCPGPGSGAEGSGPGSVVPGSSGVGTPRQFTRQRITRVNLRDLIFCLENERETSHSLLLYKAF
T2 sequence 2: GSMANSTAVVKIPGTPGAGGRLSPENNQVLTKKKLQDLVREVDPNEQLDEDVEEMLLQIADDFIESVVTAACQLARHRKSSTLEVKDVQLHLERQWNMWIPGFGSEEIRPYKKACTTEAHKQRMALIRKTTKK

[4] = target: T3, TAF4(832–966)–6XHIS-tagged TAF12 heterodimer (human) (UniProt O00268+Q16514); assay: as above
T3 sequence 1: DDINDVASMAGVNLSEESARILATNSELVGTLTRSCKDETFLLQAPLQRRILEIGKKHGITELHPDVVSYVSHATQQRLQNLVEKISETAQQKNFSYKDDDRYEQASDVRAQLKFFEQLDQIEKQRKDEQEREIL
T3 sequence 2: T2 sequence 2

Molecule: TAF4–TAF12 heterodimer (full-length TAF4 with TAF12) (from UniProt O00268 1-1085; Q16514 1-161) (complex)
binding [1]: binds

B1: TAF4 (805–1083), bacterially expressed (domain or fragment, UniProt O00268 805-1083)
chain: T2 sequence 1
binding [2]: binds

B2: full length HNF4A (bacterially expressed, untagged) (protein, UniProt P41235 1-474)
chain: T1 sequence
binding [3]: binds

B3: HNF4A DBD-hinge-ligand binding domain (DBD–LBD, 55–377) (domain or fragment, UniProt P41235 55-377)
chain: GVSALCAICGDRATGKHYGASSCDGCKGFFRRSVRKNHMYSCRFSRQCVVDKDKRNQCRYCRLKKCFRAGMKKEAVQNERDRISTRRSSYEDSSLPSINALLQAEVLSRQITSPVSGINGDIRAKKIASIADVCESMKEQLLVLVEWAKYIPAFCELPLDDQVALLRAHAGEHLLLGATKRSMVFKDVLLLGNDYIVPRHCPELAEMSRVSIRILDELVLPFQELQIDDNEYAYLKAIIFFDPDAKGLSDPGKIKRLRSQVQVSLEDYINDRQYDSRGRFGELLLLLPTLQSITWQMIEQIQFIKLFGMAKIDNLLQEMLLGG
binding [4]: binds

B6: HNF4A ligand binding domain (LBD, 148–377) (domain or fragment, UniProt P41235 148-377)
chain: SLPSINALLQAEVLSRQITSPVSGINGDIRAKKIASIADVCESMKEQLLVLVEWAKYIPAFCELPLDDQVALLRAHAGEHLLLGATKRSMVFKDVLLLGNDYIVPRHCPELAEMSRVSIRILDELVLPFQELQIDDNEYAYLKAIIFFDPDAKGLSDPGKIKRLRSQVQVSLEDYINDRQYDSRGRFGELLLLLPTLQSITWQMIEQIQFIKLFGMAKIDNLLQEMLLGG
binding [4]: binds

Other lines, results leading:

binding [1]: no binding
Molecule: TAF11–TAF13 histone fold pair (from UniProt Q15544 1-211; Q15543 1-124) (complex)

binding [1]: binds
Molecule: TAF4(805–1083)–TAF12 heterodimer (HEK cells) (from UniProt O00268 805-1083; Q16514 1-161) (complex)

binding [2]: binds
B4: TAF4 (832–966), bacterially expressed (domain or fragment, UniProt O00268 832-966)
chain: T3 sequence 1

binding [1]: binds
B5: full-length TAF4 (mouse or human), expressed alone (protein, UniProt O00268 1-1085)
chain: MAAGSDLLDEVFFNSEVDEKVVSDLVGSLESQLAASAAHHHHLAPRTPEVRAAAAGALGNHVVSGSPAGAAGAGPAAPAEGAPGAAPEPPPAGRARPGGGGPQRPGPPSPRRPLVPAGPAPPAAKLRPPPEGSAGSCAPVPAAAAVAAGPEPAPAGPAKPAGPAALAARAGPGPGPGPGPGPGPGPGKPAGPGAAQTLNGSAALLNSHHAAAPAVSLVNNGPAALLPLPKPAAPGTVIQTPPFVGAAAPPAPAAPSPPAAPAPAAPAAAPPPPPPAPATLARPPGHPAGPPTAAPAVPPPAAAQNGGSAGAAPAPAPAAGGPAGVSGQPGPGAAAAAPAPGVKAESPKRVVQAAPPAAQTLAASGPASTAASMVIGPTMQGALPSPAAVPPPAPGTPTGLPKGAAGAVTQSLSRTPTATTSGIRATLTPTVLAPRLPQPPQNPTNIQNFQLPPGMVLVRSENGQLLMIPQQALAQMQAQAHAQPQTTMAPRPATPTSAPPVQISTVQAPGTPIIARQVTPTTIIKQVSQAQTTVQPSATLQRSPGVQPQLVLGGAAQTASLGTATAVQTGTPQRTVPGATTTSSAATETMENVKKCKNFLSTLIKLASSGKQSTETAANVKELVQNLLDGKIEAEDFTSRLYRELNSSPQPYLVPFLKRSLPALRQLTPDSAAFIQQSQQQPPPPTSQATTALTAVVLSSSVQRTAGKTAATVTSALQPPVLSLTQPTQVGVGKQGQPTPLVIQQPPKPGALIRPPQVTLTQTPMVALRQPHNRIMLTTPQQIQLNPLQPVPVVKPAVLPGTKALSAVSAQAAAAQKNKLKEPGGGSFRDDDDINDVASMAGVNLSEESARILATNSELVGTLTRSCKDETFLLQAPLQRRILEIGKKHGITELHPDVVSYVSHATQQRLQNLVEKISETAQQKNFSYKDDDRYEQASDVRAQLKFFEQLDQIEKQRKDEQEREILMRAAKSRSRQEDPEQLRLKQKAKEMQQQELAQMRQRDANLTALAAIGPRKKRKVDCPGPGSGAEGSGPGSVVPGSSGVGTPRQFTRQRITRVNLRDLIFCLENERETSHSLLLYKAFLK
